This is one part of the list.
Each compound was assayed on T1, C. trachomatis L2/434/Bu expressing GFP (CTL2-GFP). Conditions: total inclusion area; 28.5 h, 10 µM; inhibitor.
T1 construct: L2/434/Bu GFP intracellular growth in HeLa cells
Set-up: species or system HeLa; C. trachomatis total inclusion area by high-content imaging, normalised to DMSO
In short: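 Following bulk GFP and resorufin fluorescence reads, infected cells were fixed, Hoechst-stained and imaged on a high-content platform. Inclusion total area and number per well served as growth proxies; nuclei counts indicated host viability. MICs were derived as for the fluorescence assay.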

| Compound | % of control remaining |
| --- | --- |
| CCOC(=O)c1c(NC(=O)CC2Sc3ccccc3NC2=O)sc(C)c1C (centres unmarked) [CBK263349] | 101.595 |
| O=C(c1ccccc1F)N1C[C@H](c2ccsc2)[C@H]2CN(Cc3cccc(F)c3)CC[C@H]21 [CBK285660] | 84.5515 |
| Cc1ccccc1-c1nnc2n1CCCN2 [CBK200089] | 104.24 |
| Nc1nc2c([C@@H]3O[C@H](CO)[C@H](O)C3O)c[nH]c2c(=O)[nH]1 (some centres unmarked) [CBK201292] | 81.0407 |
| CC1CCN(Cc2ccc(-c3nnn(CC(=O)NCc4ccc(NS(C)(=O)=O)cc4)n3)cc2)CC1 [CBK144588C] | 86.0233 |
| COc1ccc(-c2ccc(C#N)c(SCc3ccncc3)n2)cc1 [CBK269883] | 73.1644 |
| C=C(C)Cn1c(SC(C)C)nnc1-c1ccccc1Cl [CBK200079] | 70.4131 |
| COc1ccc(CC(=O)Nc2nc(OC)cnc2/C=C\c2ccccc2)cc1 [CBK145224] | 110.762 |
| CCCN(CC1CC1)C1CCc2cccc(C(N)=O)c2C1 (centres unmarked) [CBK016579] | 69.4091 |
| CCCCN(C)c1nccnc1-c1ccncc1 [CBK037655] | 100.6 |
| CCOc1ccc(S(=O)(=O)N2CCN(CCCC#N)CC2)c2cccnc12 [CBK063046] | 80.5643 |
| O=[N+]([O-])c1cc(C(F)(F)F)ccc1NCCCNc1nc(N2CCOCC2)nc2ccccc12 [CBK266567] | 89.0497 |
| CCc1c(C)nc2ccccc2c1SCCOC(=O)Nc1ccccc1 [CBK155466T] | 95.1194 |
| COc1cc(CNCc2ccccn2)ccc1OCc1ccccc1C [CBK270108C] | 64.5694 |
| COc1ccc(-c2nc(-c3cc4ccccc4s3)cnc2N)cc1OC [CBK063963] | 63.9048 |
| Cc1cc(-c2sc(N)nc2-c2cccs2)on1 [CBK284492] | 120.603 |
| COc1ccc(/C=N/NC(=O)c2cc[nH]n2)cc1COc1ccc(Cl)cc1Cl [CBK263708] | 105.031 |
| Clc1ccc(CN2CCc3ccccc3C2)cc1Cl [CBK126395] | 79.6739 |
| CC(C)CCCC(=O)n1ccn(CCCOc2ccccc2)c1=O [CBK106561] | 82.6191 |
| O=C(O)CC(c1ccccc1)c1ccc2c(c1)OCO2 (centres unmarked) [CBK286983] | 100.554 |
| CCOC(=O)c1cn(CC2(CO)CCC2)cc(Oc2ccccc2)c1=O [CBK306698] | 72.0987 |
| CC(C)(CO)CCCn1cncc1-c1cnn(C2CCCCC2)c1 [CBK281779] | 93.7312 |
| CCC(=O)N(C)[C@H]1CC[C@]2(CC1)CNC(=O)c1ccccc1O2 [CBK281683] | 91.5825 |
| Cc1cc(NS(=O)(=O)c2cccc(Cl)c2C)on1 [CBK022499] | 101.505 |
| O=C(O)CCN1CCN(S(=O)(=O)c2ccc3ccccc3c2)CC1 [CBK269255] | 110.082 |
| CS(=O)(=O)c1ccc(-c2nccnc2N2CCN(c3ccncc3)CC2)cc1 [CBK036924] | 151.788 |
| COc1ccccc1N1CCN(C(=O)NCc2cnc(C)cn2)CC1 [CBK155367] | 86.4458 |

| Compound | % of control remaining |
| --- | --- |
| O=S(=O)(N1CCCCCC1)n1ccnc1 [CBK269241] | 58.8929 |
| CN(c1ncc(Br)cc1C(=O)Nc1ccc(C(F)(F)F)cc1)S(C)(=O)=O [CBK076542] | 96.5891 |
| COc1cc(-c2cnc(N)c(N[C@H](CO)C(C)C)n2)cc(OC)c1OC [CBK063765] | 130.061 |
| CSc1nc(NC(=O)CCCc2ccccc2)cc(N2CCNCC2)n1 [CBK050258T] | 61.0869 |
| CCn1cc(NC(=O)C(CC)(CC)CN)ccc1=O [CBK304320C] | 76.5887 |
| NC(=O)c1ccc(-c2nccnc2NCc2ccc3c(c2)OCO3)cc1 [CBK036696] | 123.144 |
| O=C(CCN1CCc2ccccc2C1)Nc1cccc(F)c1 [CBK264282] | 85.5628 |
| Cn1cc(C(=O)N2CCOCC2c2nc(-c3cccs3)no2)cn1 (centres unmarked) [CBK305422] | 29.5298 |
| Cc1ccc2c(c1)C(NC(=O)N(C)C1CCS(=O)(=O)CC1)CC(C)(C)O2 (centres unmarked) [CBK307654] | 120.738 |
| O=S(=O)(NC1CCN(Cc2ccccc2)CC1)c1cccc2nonc12 [CBK062030] | 100.949 |
| Cc1ccc(C)c2c(C)c(C(=O)N3CCC(O)C(C)C3)[nH]c12 (centres unmarked) [CBK282527] | 130.748 |
| O=C(OCCC1SC(NC2CC3C=CC2C3)=NC1=O)c1ccc(Cl)c(Cl)c1 (centres unmarked) [CBK200056T] | 90.7539 |
| CN(C)c1ccc(C(=O)N2CCC(c3cc4cnccc4[nH]3)CC2)cc1 [CBK283446] | 98.0111 |
| Cc1ccc(OCc2occc2C(=O)N2CCc3[nH]cnc3C2)cc1 [CBK307717] | 47.6923 |
| COc1ccc(/C=C(\C)C(=O)Nc2cccc(N3CCNCC3)c2)cc1OC [CBK034115T] | 102.808 |
| CCCC/C(=N/N=C(\CCCC)c1ccncc1)c1ccncc1 [CBK016521] | 105.572 |
| O=S(=O)(Nc1nnc(C(F)(F)F)s1)c1ccc(F)cc1 [CBK026663] | 91.2903 |
| O=C(CSc1nc(-c2cccs2)cc(C(F)(F)F)n1)N1CCSCC1 [CBK307371] | 71.1725 |
| CC(C)C(=O)N1CCCc2cc(C(O)CN3CCCCC3)ccc21 (centres unmarked) [CBK282127] | 108.106 |
| O=C(CNC(=O)c1ccccc1C(=O)O)Nc1ccccc1 [CBK286690] | 59.9235 |
| Cc1cc(NS(=O)(=O)c2ccc(NC(=S)NCC3CCCO3)cc2)no1 (centres unmarked) [CBK268160] | 61.859 |
| O=C(O)C1CC=CCC1C(=O)Nc1ccc(S(=O)(=O)N2CCCc3ccccc32)cc1 (centres unmarked) [CBK268179] | 84.0152 |
| CN(C)S(=O)(=O)c1cc(C(=O)Nc2ccc(O)cc2)c(Cl)cc1Cl [CBK266767] | 73.6848 |
| O=C1CC[C@@H](NCc2ccncc2)[C@H](c2cc(F)cc(F)c2)N1 [CBK283131] | 101.416 |
| O=S1(=O)C=C(c2ccc(Cl)cc2)S(=O)(=O)CC1 [CBK018403] | 48.7445 |
| N#Cc1c(NC(=O)CCn2cnnn2)sc2c1CCC2 [CBK270041] | 66.9554 |
| CCOC(=O)CSc1nc2cc(Cl)c(Cl)cc2nc1NC(C)C [CBK107173] | 97.4065 |

| Compound | % of control remaining |
| --- | --- |
| CN1C[C@@H](NC(=O)COc2ccccc2)C[C@H]1c1nc(-c2ccncc2)no1 [CBK288855] | 123.458 |
| Cc1ccccc1C(=O)NC(NC(=S)Nc1sc2c(c1C(N)=O)CCCC2)C(Cl)(Cl)Cl (centres unmarked) [CBK261047] | 83.9841 |
| COCCC(=O)NCc1ccccc1OC1CCNC1 (centres unmarked) [CBK024504T] | 124.514 |
| O=C(c1cnc2ccccc2n1)N1CCN(CCc2ccccc2)CC1 [CBK200214] | 94.8243 |
| CCN(CCc1nc2cc(OC)ccc2[nH]1)C(=O)c1cc(C#N)cn1C [CBK306658] | 90.6045 |
| Cc1cc(Cl)c(S(=O)(=O)N2CCN(c3ccc(F)cc3)CC2)cc1OCC(N)=O [CBK266439] | 125.051 |
| COc1ncccc1CNc1ncnc2c1cnn2CCO [CBK305980] | 6.069 |
| Nc1cccc(Oc2ccc(C(c3ccc(Oc4cccc(N)c4)cc3)(C(F)(F)F)C(F)(F)F)cc2)c1 [CBK261645] | 79.5839 |
| COc1cc(C)c(Nc2cc(-c3cccnc3)ncn2)cc1OC [CBK037754] | 79.9351 |
| CCn1c(C)cc2cc(NS(=O)(=O)c3ccc4[nH]c(=O)[nH]c(=O)c4c3)ccc21 [CBK286363] | 118.153 |
| Cc1c(C(=O)O)sc(S(=O)(=O)N2CCN(C(=O)CC3CCCC3)CC2)c1C(=O)O [CBK297122] | 102.699 |
| O=C(NC(=S)Nc1ccc(S(=O)(=O)Nc2nccs2)cc1)C12CC3CC(CC(C3)C1)C2 [CBK261067] | 74.4135 |
| OC1CCCn2c1nc1cc(Cl)ccc12 (centres unmarked) [CBK113625] | 67.9579 |
| CC1(C)CC(=O)C(=CNCCCn2ccnc2)C(=O)C1 [CBK261686] | 103.68 |
| O=C1CCC(=O)N1CCOc1nccnc1N1CCN(CCc2ccccc2)CC1 [CBK084302] | 85.1697 |
| FC(F)(F)c1ccc(OCc2ccc(-c3ccccc3)cc2)nc1 [CBK115830] | 119.09 |
| CC(=O)C1=C(O)C(=O)N(CC(=O)O)C1c1cccc([N+](=O)[O-])c1 (centres unmarked) [CBK262921] | 100.656 |
| c1ccc(N2CCC(CNCc3c[nH]nc3-c3cccnc3)C2)cc1 (centres unmarked) [CBK305738] | 79.2547 |
| CC(C)(C)OC(=O)NCc1ccc(CNCc2ccccc2C(F)(F)F)cc1 [CBK056703] | 97.435 |
| CCc1nn(Cc2ccccn2)c(=O)c2cc3sccc3n12 [CBK284074] | 112.629 |
| CC(CCc1ccccc1)N1CCN(S(=O)(=O)c2ccc3ccccc3c2)CC1 (centres unmarked) [CBK264240] | 96.6101 |
| COC(=O)Nc1ccc(S(=O)(=O)N2CCCC(C(=O)Nc3ccc4c(c3)OCO4)C2)cc1 (centres unmarked) [CBK265361] | 92.9655 |
| COc1ccc(C(=O)N(Cc2ccco2)Cc2cc3ccccc3nc2O)cc1 [CBK269594] | 100.894 |
| Cc1nc2n(CCN3CCCCC3)c3ccccc3n2c1C(=O)c1cccs1 [CBK278242B] | 78.7949 |
| CC(C)C(=O)N[C@@H](C)Cn1c(C(F)(F)F)cc2cccnc21 [CBK283231] | 72.0659 |
| CN1CCN(c2ccc(C(=O)O)cc2)CC1 [CBK264773] | 109.234 |

From PMC12040169 (PLOS Biology, 2025)
